Measured values reported in the supplement of paper PMC3334620.
Over roughly 33,000 sequences, “E-score (-0.5 to 0.5)” has its median near -0.016; the highest 2% begin near 0.32. The list shows a part of the results.

biological target: T1, Stp1 (UniProt B3LFK1); assay: PBM E-score (8-mer binding enrichment) (E-score (-0.5 to 0.5)); higher = stronger / more preferred TF binding; most listed sequences are background and not binding sites; conditions: protein concentration: 200 nM; construct: GST-full length
T1 sequence: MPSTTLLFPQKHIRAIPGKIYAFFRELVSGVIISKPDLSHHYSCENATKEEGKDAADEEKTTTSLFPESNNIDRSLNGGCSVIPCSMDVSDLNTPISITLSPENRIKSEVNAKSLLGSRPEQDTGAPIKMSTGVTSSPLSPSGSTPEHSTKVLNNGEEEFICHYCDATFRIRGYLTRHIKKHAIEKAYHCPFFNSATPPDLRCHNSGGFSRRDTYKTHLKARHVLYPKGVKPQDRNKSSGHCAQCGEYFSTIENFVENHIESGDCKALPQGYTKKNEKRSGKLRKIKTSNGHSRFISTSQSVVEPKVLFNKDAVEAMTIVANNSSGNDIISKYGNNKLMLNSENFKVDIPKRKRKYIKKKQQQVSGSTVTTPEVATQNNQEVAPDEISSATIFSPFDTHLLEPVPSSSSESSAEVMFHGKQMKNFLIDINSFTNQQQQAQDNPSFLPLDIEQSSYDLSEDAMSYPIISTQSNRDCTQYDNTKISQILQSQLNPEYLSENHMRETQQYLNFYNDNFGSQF
Procedure: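 Universal 'all 10-mer' protein binding microarrays (Agilent AMADID 015681) probed with GST-tagged S. cerevisiae TFs (full-length or DBD) made by in vitro transcription/translation (PURExpress), about 100-200 nM. Bound TF was detected with fluorescent anti-GST. Each ungapped 8-mer (which stands for itself and its reverse complement) is scored by the PBM enrichment score (E-score), a modified Wilcoxon-Mann-Whitney statistic from -0.5 to +0.5, computed with the Universal PBM Analysis Suite. Scale: above 0.35 generally sequence-specific binding.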

Row | Sequence | PBM E-score
1 | AGAAAGAC | -0.179
2 | GAAATGCC | 0.358
3 | AGGCCGTA | 0.298
4 | CGCATGCA | 0.253
5 | ACTAAGAG | -0.00691
6 | AGTAATAA | 0.194
7 | AGCGGTGA | -0.0251
8 | TCTAAACA | 0.0817
9 | GCGCACCA | 0.125
10 | CCTGCTAA | -0.238
11 | AGCCGTAA | 0.31
12 | GTATGTCA | 0.0265
13 | GAGCAGCC | 0.0376
14 | CAGCCCGA | -0.192
15 | ACGCAGCG | 0.0728
16 | AGGTAGTA | 0.0699
17 | GAGTAGAA | 0.1
18 | GAAGACCA | -0.028
19 | ATAAGAGC | 0.169
20 | ACGCGGCC | 0.326
21 | CGGAAGGC | 0.168
22 | AACACTGG | -0.0145
23 | CGATGGAA | 0.0937
24 | ACTCTTCC | -0.0344
25 | ACAGCCAG | -0.0916

Row | Sequence | PBM E-score
26 | ATTCATCA | -0.0923
27 | TACTCGGA | -0.00331
28 | CACCTAGA | -0.0847
29 | AACCTACA | -0.0226
30 | TACTGGCA | -0.0612
31 | GAGGGCAA | 0.0861
32 | CTTACGAA | 0.0608
33 | AGGAACAC | 0.063
34 | AGTCATTC | -0.246
35 | ATGCGACG | -0.131
36 | AAAATTGT | 0.076
37 | CTATGCAG | 0.0393
38 | ACAAGATC | -0.121
39 | AAGAGGAT | -0.292
40 | ACTGAGGC | 0.104
41 | AATCTATC | -0.0435
42 | AACTGGAT | 0.0626
43 | CGGTTATA | -0.08
44 | GAAGCGTA | -0.105
45 | GACCTTTA | -0.0597
46 | GCACGGGA | 0.128
47 | CTGCCCGC | -0.0008
48 | GGTCAGAC | -0.277
49 | ATCCATCA | 0.0768
50 | CCTTTCCA | -0.0138

Row | Sequence | PBM E-score
51 | CGATAACC | -0.0772
52 | GCCTCTAA | 0.0553
53 | GAACTAAC | -0.027
54 | CGTCGGGC | 0.00283
55 | CTTATCCC | -0.177
56 | AATACTCC | -0.256
57 | CAGTGCCC | 0.108
58 | GATCTGAA | -0.176
59 | ACGCTAAA | 0.127
60 | GGCCATCA | -0.0599
61 | ACCTTCAT | -0.0677
62 | AAGTTATT | 0.167
63 | CAGTCGAA | -0.148
64 | GGCGAGAC | -0.12
65 | ATTTTGTC | 0.0356
66 | CAATGTGG | 0.107
67 | ACTAGATA | 0.0525
68 | ATAGTTTC | 0.00045
69 | CTGACTCA | -0.1
70 | CAGTACGC | -0.111
71 | GATGTCTA | -0.015
72 | AATGGAAT | 0.136
73 | CCTTTACG | -0.0123
74 | CTGAAGCC | 0.0469
75 | ATAAAGTG | 0.0971

Row | Sequence | PBM E-score
76 | CCTAGGAA | -0.0529
77 | CAACTCCA | -0.108
78 | AATTGGAT | 0.16
79 | GCTTTGGA | 0.103
80 | AACATCGC | -0.0551
81 | GACGATCA | -0.211
82 | GTCATAAA | -0.0336
83 | ACGTCGCG | -0.00283
84 | AAACACGC | 0.131
85 | GACCTCTA | -0.165
86 | CAAGTAGG | -0.238
87 | AGAAATAT | 0.169
88 | CGGAGTAA | -0.061
89 | GACGTGGC | 0.0455
90 | AATAACTA | 0.192
91 | CGTCGAGA | 0.0852
92 | ATCCCTGG | -0.123
93 | CGGGACTC | -0.11
94 | CTTATTCA | -0.0168
95 | TAATAAGA | 0.168
96 | ATTAAAAT | 0.184
97 | CGGTAGTC | -0.192
98 | TCCCACAA | -0.149
99 | GCAATGAC | -0.125
100 | CCATTAAG | -0.0189

Row | Sequence | PBM E-score
101 | AAAACATT | 0.183
102 | TGTGCGAA | 0.147
103 | AGCATCGA | -0.0592
104 | AACATCTT | -0.0911
105 | AGGATAAT | 0.0412
106 | ATGCAAGA | 0.00645
107 | GAAGTCTA | -0.365
108 | ACCAGGCG | -0.143
109 | CACCCTCA | -0.315
110 | AAAAGCTA | -0.0536
111 | ATAAAGTA | 0.107
112 | CTGCTCCC | -0.208
113 | TCCTTAAA | 0.0727
114 | AGTACCCA | -0.186
115 | CTTTACTC | 0.125
116 | CGGGGCTA | -0.146
117 | AAGTCTTG | -0.00682
118 | GGGTTTTA | 0.0768
119 | ACGCCCGG | -0.15
120 | GGCCTCAA | -0.0681
121 | AGCCCCGG | -0.07
122 | CCCTCAGC | -0.239
123 | AAATCACG | 0.204
124 | CCCGCGGC | 0.411
125 | CAGCCTCC | -0.221

Row | Sequence | PBM E-score
126 | ACTCGCAA | -0.0302
127 | ATGTTACG | 0.0345
128 | CATACATG | 0.00682
129 | CTCCAAGC | -0.0932
130 | GGGCGCGA | 0.28
131 | AGAGGAAG | -0.188
132 | AATCTCGG | -0.0866
133 | TCCGCAGA | -0.0849
134 | ATCCGCGC | 0.212
135 | CACGAGCA | -0.155
136 | AAACCTGG | -0.06
137 | GATCAACA | -0.0194
138 | CGTGAGAC | 0.14
139 | GGGGGGTA | -0.342
140 | AACAATTG | -0.0991
141 | GACTTACC | -0.169
142 | CTCAGCGC | 0.0957
143 | ACTCAAAC | 0.0639
144 | AACGGCAT | 0.451
145 | ACAACAGT | -0.155
146 | CAGATGAC | -0.0813
147 | CTACTAGC | 0.063
148 | ACGACCCC | -0.132
149 | GGCCCCCA | -0.406
150 | AATGAATA | 0.111

Row | Sequence | PBM E-score
151 | GTACCGCA | 0.18
152 | CGGACGAG | -0.159
153 | GCCTGTCC | -0.271
154 | CCAACACG | 0.0774
155 | TGTCACAA | 0.158
156 | CTTACCAA | 0.171
157 | CTATACCC | -0.0678
158 | ACTAACCT | -0.0441
159 | ACGGAAAG | 0.0844
160 | GACGCTAC | -0.0952
161 | GATGCTGA | -0.277
162 | CAGCTGAA | -0.0542
163 | CCGAGTAG | 0.0203
164 | ATCCCGGG | -0.0412
165 | GGCCGCGA | -0.0392
166 | AGGAATTG | 0.019
167 | ATGAAGCC | 0.198
168 | ACTGAGTC | -0.097
169 | GTGATATA | -0.0801
170 | CACCTAGC | -0.224
171 | ATCTCCGA | -0.0118
172 | TCTTCACA | 0.107
